Measurements published in the supplement of paper PMC6135742.
Structures can show the parent of a compound that is named as a salt. Over roughly 2,600 compounds, “MBP+ mature oligodendrocyte number relative to DMSO vehicle control” has its median near -0.34; the highest 2% begin near 13. Some of the results follow.

Test system: jimpy (Plp1 jimpy) mouse iPSC-derived oligodendrocyte progenitor cells
Test: MBP+ mature oligodendrocyte number relative to DMSO vehicle control (SDs above negative control mean); higher = more surviving jimpy oligodendrocytes (rescue)
Details: 10 µM; 3 days
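Note: 10 µM single dose with 3-day oligodendrocyte differentiation.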

SMILES | MBP+ mature oligodendrocyte number
Cc1cc([C@@H](C)Nc2ccccc2C(=O)O)c2nc(N3CCOCC3)cc(=O)n2c1 | -4.25
CN1CCN(c2nc3cc(C(F)(F)F)ccc3n3cccc23)CC1 | -3.32
COc1cc2nccc(Oc3ccc(NC(=O)C4(C(=O)Nc5ccc(F)cc5)CC4)cc3)c2cc1OC | -6.09
O=C(O)/C=C/c1ccc(Cn2ccnc2)cc1 [Ozagrel HCl] | -2.45
O=C(O)/C=C/c1ccc(Cn2ccnc2)cc1 [Ozagrel] | -1.62
CCCc1nc(C)c2c(=O)nc(-c3cc(S(=O)(=O)N4CCN(CC)CC4)ccc3OCC)[nH]n12 [Vardenafil HCl Trihydrate] | 8.56
CNC(=O)c1cc(COc2nnc(Nc3ccc(Cl)cc3)c3ccoc23)ccn1 [Telatinib] | 5.93
OC1(c2ccc(Cl)c(C(F)(F)F)c2)CCN(CCCC(c2ccc(F)cc2)c2ccc(F)cc2)CC1 [Penfluridol] | -6.18
C[C@@H]1C[C@H]2[C@@H]3CCC4=CC(=O)C=C[C@]4(C)[C@@]3(F)[C@@H](O)C[C@]2(C)[C@@]1(O)C(=O)CO [Dexamethasone (DHAP)] | 5.96
Cc1cnc(NC(=O)C2=C(O)c3ccccc3S(=O)(=O)N2C)s1 [Meloxicam sodium] | -0.519
Cc1cnc(NC(=O)C2=C(O)c3ccccc3S(=O)(=O)N2C)s1 [Meloxicam] | -0.107
CC(C)NCC(O)COc1ccc(CC(N)=O)cc1 (racemic) [(±)-Atenolol] | -0.315
O=C(O)CCCc1ccccc1 [Sodium Phenylbutyrate] | -0.607
CC1(C)O[C@@H]2C[C@H]3[C@@H]4CCC5=CC(=O)C=C[C@]5(C)[C@@]4(F)[C@@H](O)C[C@]3(C)[C@]2(C(=O)CO)O1 [Triamcinolone Acetonide] | 5.92
N=C(N)SCCc1c[nH]cn1 [Imetit dihydrobromide] | -0.363
COc1ccccc1S(=O)(=O)Nc1ccc2c(c1)CN(C)C(=O)N2 | < -6.7
Nc1nc(=O)c(Br)c(-c2ccccc2)[nH]1 [Bropirimine] | -1.03
Cc1nnc(NS(=O)(=O)c2ccc(N)cc2)s1 [Sulfamethizole] | 2.95
CN(C)c1ccc(/C=C2/C(=O)Nc3ccccc32)cc1 | 0.789
COc1cc(NS(C)(=O)=O)ccc1Nc1c2ccccc2nc2ccccc12 [Amsacrine hydrochloride] | < -3.34
FC(F)c1nc2ccccc2n1-c1nc(N2CCOCC2)nc(N2CCOCC2)n1 | < -6.7
CCN1CCN(c2cc3c(cc2F)c(=O)c(C(=O)O)cn3C2CC2)CC1 [Enrofloxacin] | 0.898
